Results on 45 compounds are retold here after article PMC4336329 (PLoS ONE, 2015).

Out of some 310,000 compounds screened, about 2,200 (0.71%) showed an effect of 50% or more. The effect is printed as a negative number. Some of the results follow.

The target in this test is human ether-à-go-go-related gene (hERG) potassium channel (human, UniProt Q12809). Kind of test: primary screen, population patch clamp on CHO cells stably expressing hERG.
Sequence of human ether-à-go-go-related gene (hERG) potassium channel (Q12809 whole entry, looked up): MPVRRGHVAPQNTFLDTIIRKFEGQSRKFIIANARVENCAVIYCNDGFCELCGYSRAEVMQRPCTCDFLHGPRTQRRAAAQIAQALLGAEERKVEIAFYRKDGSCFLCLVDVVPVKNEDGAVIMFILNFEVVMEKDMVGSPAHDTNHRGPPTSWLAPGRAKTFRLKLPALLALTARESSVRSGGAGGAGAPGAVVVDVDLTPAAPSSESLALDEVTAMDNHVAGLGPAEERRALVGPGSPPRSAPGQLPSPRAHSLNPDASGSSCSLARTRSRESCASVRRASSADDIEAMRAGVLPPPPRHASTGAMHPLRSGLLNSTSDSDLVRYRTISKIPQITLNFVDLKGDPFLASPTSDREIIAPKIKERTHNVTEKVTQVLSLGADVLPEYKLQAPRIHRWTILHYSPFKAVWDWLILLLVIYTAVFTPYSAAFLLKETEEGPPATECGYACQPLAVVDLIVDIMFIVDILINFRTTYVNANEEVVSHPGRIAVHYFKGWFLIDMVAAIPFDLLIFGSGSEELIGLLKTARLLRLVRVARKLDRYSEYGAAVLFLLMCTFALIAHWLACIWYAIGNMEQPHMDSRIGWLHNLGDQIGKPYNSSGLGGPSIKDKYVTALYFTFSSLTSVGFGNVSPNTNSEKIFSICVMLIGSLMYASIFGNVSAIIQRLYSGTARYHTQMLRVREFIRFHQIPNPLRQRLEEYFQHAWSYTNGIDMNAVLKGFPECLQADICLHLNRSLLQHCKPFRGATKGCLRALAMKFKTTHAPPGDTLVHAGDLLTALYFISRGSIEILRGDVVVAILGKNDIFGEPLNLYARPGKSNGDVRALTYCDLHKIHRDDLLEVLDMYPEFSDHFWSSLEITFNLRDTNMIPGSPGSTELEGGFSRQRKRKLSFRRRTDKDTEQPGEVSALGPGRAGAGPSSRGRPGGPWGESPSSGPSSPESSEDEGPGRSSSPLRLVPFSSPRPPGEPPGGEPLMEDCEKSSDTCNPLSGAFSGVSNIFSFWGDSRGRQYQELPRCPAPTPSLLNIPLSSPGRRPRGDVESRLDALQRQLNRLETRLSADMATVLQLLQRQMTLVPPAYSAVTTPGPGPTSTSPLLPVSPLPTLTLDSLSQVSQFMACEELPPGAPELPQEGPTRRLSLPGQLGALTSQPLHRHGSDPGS
Take `O=C(C1CC1)N1CCc2cc(Br)cc(S(=O)(=O)NCC3COc4ccccc4O3)c21` (stereo not drawn): the “hERG current change (%, negative = inhibition) at 1uM” value is reported as 7.21%.

Turning to `CCn1c(C(=O)O)c(CC(=O)Nc2ccc(Br)cc2C)c2ccccc21`, the “hERG current change (%, negative = inhibition) at 1uM” value is recorded as 9.9%.

With `CCCNC(=O)COc1coc(CN2CCN(c3ccc(F)cc3)CC2)cc1=O`, the “hERG current change (%, negative = inhibition) at 1uM” value was found to be 16.8%.

As to `COC(=O)C1=C(c2ccccc2OCc2ccccc2)C[C@@H]2CC[C@H]1N2C(=O)NCCCOC(C)C`, the “hERG current change (%, negative = inhibition) at 1uM” value was found to be 10.6%.

As to `O=C1N2CN(C(c3ccccc3)c3ccccc3)CN=C2SC1(CO)CO`, the “hERG current change (%, negative = inhibition) at 1uM” value worked out at 5.23%.

With `CC(C)CNC(=S)N(CCN(C)C)Cc1cc2cc3c(cc2[nH]c1=O)OCO3`, the “hERG current change (%, negative = inhibition) at 1uM” value is on record as 16.6%.

Consider `COC(=O)c1ccc(-n2nnnc2SCc2nn[nH]n2)cc1`, for which the “hERG current change (%, negative = inhibition) at 1uM” value was found to be 14.3%.

For the compound `CCOC(=O)N1CCN(C(=O)C(CC)c2ccccc2)CC1` (stereo not drawn), the “hERG current change (%, negative = inhibition) at 1uM” value came to 14.6%.

Take `C=CCNC(=S)/C(=C(/[O-])c1ccc([N+](=O)[O-])cc1)[n+]1ccccc1`: the “hERG current change (%, negative = inhibition) at 1uM” value came to 9.06%.

With `O=C(O)C(=O)O.O=S(=O)(c1ccc(Cl)cc1)N1CCN(Cc2ccncc2)CC1`, the “hERG current change (%, negative = inhibition) at 1uM” value is -11.1%.

As to `OCCOc1ccccc1`, the “hERG current change (%, negative = inhibition) at 1uM” value is listed as 14.6%.

With `CN1C(=O)N(C)C(NC(=O)Nc2ccccc2)C1NC(=O)Nc1ccccc1` (stereo not drawn), the “hERG current change (%, negative = inhibition) at 1uM” value is 9.11%.

For the compound `Cc1cc(C(=O)N2CCOCC2)ccc1[N+](=O)[O-]`, the “hERG current change (%, negative = inhibition) at 1uM” value is given as 3.84%.

For `Cc1ccc(NC(=O)C2CCN(S(=O)(=O)c3ccc4c(c3)CCCC(=O)N4)CC2)cc1N(C)C`, the “hERG current change (%, negative = inhibition) at 1uM” value stood at 5.6%.

With `Cc1ccc(S(=O)(=O)N(C)CCCC(=O)Nc2cccc3ccccc23)cc1`, the “hERG current change (%, negative = inhibition) at 1uM” value is reported as -2.05%.

For the compound `Cc1c(C(=O)NCc2ccccn2)oc2ccc(Br)cc12`, the “hERG current change (%, negative = inhibition) at 1uM” value is reported as -9.75%.

As to `CCNC(=S)Nc1ccc(Cl)c(C(F)(F)F)c1`, the “hERG current change (%, negative = inhibition) at 1uM” value worked out at 3.22%.

For `CCN1CCN(C(=O)c2ccccc2N(C)S(=O)(=O)c2ccc(C)cc2)CC1`, the “hERG current change (%, negative = inhibition) at 1uM” value was 4.82%.

As to `CCc1cccc(OCCCCNCCCOC)c1.O=C(O)C(=O)O`, the “hERG current change (%, negative = inhibition) at 1uM” value was 7.35%.

With `COc1cccc(-c2csc(NC(=O)C3CC3)n2)c1`, the “hERG current change (%, negative = inhibition) at 1uM” value was found to be 16.7%.

Turning to `O=C(NNC(=O)C1CC1c1ccccc1)Nc1cccc(Cl)c1` (stereo not drawn), the “hERG current change (%, negative = inhibition) at 1uM” value was 11.3%.

On to `COc1ccccc1C(=O)NCCC(=O)N(Cc1ccco1)Cc1cccs1`, for which the “hERG current change (%, negative = inhibition) at 1uM” value was 4.67%.

On to `Cc1nc2cc(NC(=O)c3ccc(Cl)cc3)ccc2n1C`, for which the “hERG current change (%, negative = inhibition) at 1uM” value turned out to be 3.76%.

With `Cc1ccc(/C=N/Nc2cn[nH]c(=O)n2)o1`, the “hERG current change (%, negative = inhibition) at 1uM” value was found to be 7%.

In the case of `CC(C)NC(=O)CN(C(=O)CCC(=O)Nc1nccs1)c1ccc2c(c1)OCO2`, the “hERG current change (%, negative = inhibition) at 1uM” value is recorded as 11.1%.

Turning to `COc1ccc(-n2nnnc2CNC(=O)c2ccc(S(=O)(=O)N3CCOCC3)cc2)cc1`, the “hERG current change (%, negative = inhibition) at 1uM” value is 12.8%.

Consider `O=C(O)c1ccccc1OC(C(=O)Nc1cc(Cl)cc(Cl)c1)c1ccccc1` (stereo not drawn), for which the “hERG current change (%, negative = inhibition) at 1uM” value was 13.6%.

Regarding `CC1Cc2cc(S(=O)(=O)NCCc3ccccc3)ccc2N1C(=O)C1CC1` (stereo not drawn), the “hERG current change (%, negative = inhibition) at 1uM” value was 18.9%.

In the case of `Cc1ccccc1CN1C(=O)C2(OCCCO2)c2ccccc21`, the “hERG current change (%, negative = inhibition) at 1uM” value is listed as -2.01%.

With `COc1ccc(C2C3=C(CC(C)(C)CC3=O)Nc3nc(C)nn32)cc1OC` (stereo not drawn), the “hERG current change (%, negative = inhibition) at 1uM” value is given as 14.4%.

As to `CCOCCCn1c(SCc2nc3sc(C(=O)O)c(C)c3c(=O)[nH]2)nnc1-c1ccc(Cl)cc1`, the “hERG current change (%, negative = inhibition) at 1uM” value came out at 12.6%.

In the case of `CCC(C)(C)NC(=O)CN(C(=O)CCC(=O)Nc1ccccn1)c1ccc2c(c1)OCO2`, the “hERG current change (%, negative = inhibition) at 1uM” value is reported as 7.1%.

As for `CCOc1ccc(NS(=O)(=O)c2ccc3c(c2)CCN3C(=O)CCC(=O)O)cc1`, the “hERG current change (%, negative = inhibition) at 1uM” value was found to be 10.1%.

For `Cc1ccc(-c2ccccc2)n1-c1cccc(C(=O)O)c1`, the “hERG current change (%, negative = inhibition) at 1uM” value came out at 10.4%.

For the compound `CSc1nc(C)c(CCOCc2ccccc2)c(=O)[nH]1`, the “hERG current change (%, negative = inhibition) at 1uM” value was determined as 15.8%.

On to `CC(C(=O)O)n1cc(Cl)cn1` (stereo not drawn), for which the “hERG current change (%, negative = inhibition) at 1uM” value came to 3.56%.

For `NS(=O)(=O)c1ccc(NC(=O)/C=C/c2ccccc2Cl)cc1`, the “hERG current change (%, negative = inhibition) at 1uM” value is listed as 12.5%.

For `N/C(=N\OC(=O)N1c2ccccc2Sc2ccccc21)c1ccccc1`, the “hERG current change (%, negative = inhibition) at 1uM” value is recorded as 14.8%.

For `CN(C)c1ccc(C(=O)Nc2ccc(O)c3c(=O)cc(-c4ccccc4Cl)oc23)cc1`, the “hERG current change (%, negative = inhibition) at 1uM” value came to 2.71%.

On to `NC(=O)CSc1nnc2ccc(-c3ccc(F)cc3)nn12`, for which the “hERG current change (%, negative = inhibition) at 1uM” value turned out to be 7.98%.

As to `O=C(C1CC1)N1CCc2cc(S(=O)(=O)NCCCN3CCCCC3)ccc21`, the “hERG current change (%, negative = inhibition) at 1uM” value is recorded as 9.04%.

On to `Cc1cc(C)nc(NC(=O)CSc2ccccn2)n1`, for which the “hERG current change (%, negative = inhibition) at 1uM” value is reported as 0.769%.

Take `CS(=O)(=O)N1CCN(c2ccc(NC(=S)NC(=O)c3ccccc3[N+](=O)[O-])cc2)CC1`: the “hERG current change (%, negative = inhibition) at 1uM” value was 16.9%.

For `COc1ccc(N(CC(=O)N2CCOCC2)S(=O)(=O)c2ccccc2)cc1Cl`, the “hERG current change (%, negative = inhibition) at 1uM” value turned out to be 0.0557%.

For the compound `CCOC(=O)C1=C(CSc2nc(-c3ccccc3)ccc2C#N)OC(N)=C(C#N)C1c1ccccc1` (stereo not drawn), the “hERG current change (%, negative = inhibition) at 1uM” value is given as -3.63%.
